T1: RBFOX1 RRM (Homo sapiens, UniProt Q9NWB1 109-208)
T1 sequence: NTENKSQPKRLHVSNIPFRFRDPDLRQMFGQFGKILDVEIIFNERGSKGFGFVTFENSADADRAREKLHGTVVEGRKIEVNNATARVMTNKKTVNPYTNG

B1: GGCUGUC (DNA:RNA)
RNA: GGGAGACCGGAAUUCAGAUUGUCCGGCUGUCUUAAAUCCCGUCGUAGCCACCA
DNA 1: CAATCTGAATTCCGGTCTCCC
DNA 2: TGGTGGCTACGACGGGATT
B2: ACAGACC (DNA:RNA)
RNA: B1 RNA with G25A, G26C, C27A, U28G, G29A, U30C
DNA 1: CAATCTGAATTCCGGTCTCCC
DNA 2: TGGTGGCTACGACGGGATT
B3: CUGCGUG (DNA:RNA)
RNA: B1 RNA with G25C, G26U, C27G, U28C, C31G
DNA 1: CAATCTGAATTCCGGTCTCCC
DNA 2: TGGTGGCTACGACGGGATT
B4: GUGUCGG (DNA:RNA)
RNA: B1 RNA with G26U, C27G, G29C, U30G, C31G
DNA 1: CAATCTGAATTCCGGTCTCCC
DNA 2: TGGTGGCTACGACGGGATT
B5: AAUUUGU (DNA:RNA)
RNA: B1 RNA with G25A, G26A, C27U, G29U, U30G, C31U
DNA 1: CAATCTGAATTCCGGTCTCCC
DNA 2: TGGTGGCTACGACGGGATT
B6: AACCUAA (DNA:RNA)
RNA: B1 RNA with G25A, G26A, U28C, G29U, U30A, C31A
DNA 1: CAATCTGAATTCCGGTCTCCC
DNA 2: TGGTGGCTACGACGGGATT
B7: UUAUGCU (DNA:RNA)
RNA: B1 RNA with G25U, G26U, C27A, U30C, C31U
DNA 1: CAATCTGAATTCCGGTCTCCC
DNA 2: TGGTGGCTACGACGGGATT
B8: GGGCCUG (DNA:RNA)
RNA: B1 RNA with C27G, U28C, G29C, C31G
DNA 1: CAATCTGAATTCCGGTCTCCC
DNA 2: TGGTGGCTACGACGGGATT
B9: UUGAACG (DNA:RNA)
RNA: GGGAGACCGGAAUUCAGAUUGUCCUUGAACGUUAAAUCCCGUCGUAGCCACCA
DNA 1: CAATCTGAATTCCGGTCTCCC
DNA 2: TGGTGGCTACGACGGGATT
B10: UGGCGGG (DNA:RNA)
RNA: B9 RNA with U26G, A28C, A29G, C30G
DNA 1: CAATCTGAATTCCGGTCTCCC
DNA 2: TGGTGGCTACGACGGGATT
B11: UCAUAUG (DNA:RNA)
RNA: B9 RNA with U26C, G27A, A28U, C30U
DNA 1: CAATCTGAATTCCGGTCTCCC
DNA 2: TGGTGGCTACGACGGGATT
B12: UUAGAGG (DNA:RNA)
RNA: B9 RNA with G27A, A28G, C30G
DNA 1: CAATCTGAATTCCGGTCTCCC
DNA 2: TGGTGGCTACGACGGGATT
B13: GCAGGGG (DNA:RNA)
RNA: B1 RNA with G26C, C27A, U28G, U30G, C31G
DNA 1: CAATCTGAATTCCGGTCTCCC
DNA 2: TGGTGGCTACGACGGGATT
B14: UGAAGUA (DNA:RNA)
RNA: B1 RNA with G25U, C27A, U28A, C31A
DNA 1: CAATCTGAATTCCGGTCTCCC
DNA 2: TGGTGGCTACGACGGGATT
B15: UCACAAC (DNA:RNA)
RNA: B9 RNA with U26C, G27A, A28C, C30A, G31C
DNA 1: CAATCTGAATTCCGGTCTCCC
DNA 2: TGGTGGCTACGACGGGATT
B16: AAGGCGC (DNA:RNA)
RNA: B1 RNA with G25A, G26A, C27G, U28G, G29C, U30G
DNA 1: CAATCTGAATTCCGGTCTCCC
DNA 2: TGGTGGCTACGACGGGATT
B17: AGUUUCA (DNA:RNA)
RNA: B1 RNA with G25A, C27U, G29U, U30C, C31A
DNA 1: CAATCTGAATTCCGGTCTCCC
DNA 2: TGGTGGCTACGACGGGATT
B18: UACCGAA (DNA:RNA)
RNA: B1 RNA with G25U, G26A, U28C, U30A, C31A
DNA 1: CAATCTGAATTCCGGTCTCCC
DNA 2: TGGTGGCTACGACGGGATT
B19: CGUGCCC (DNA:RNA)
RNA: B1 RNA with G25C, C27U, U28G, G29C, U30C
DNA 1: CAATCTGAATTCCGGTCTCCC
DNA 2: TGGTGGCTACGACGGGATT
B20: UAACGGC (DNA:RNA)
RNA: B1 RNA with G25U, G26A, C27A, U28C, U30G
DNA 1: CAATCTGAATTCCGGTCTCCC
DNA 2: TGGTGGCTACGACGGGATT

We go through 20 molecules from PMC9911399, “Two distinct binding modes provide the RNA-binding protein RbFox with extraordinary sequence specificity”.

Positions count from the first letter of the chain named. The list shows a part of the results.

For this test, the target named is T1, RBFOX1 RRM. The experiment in a line: EMSA; HiTS-Eq, 1 nM pool, 10 min; buffer printed only for the single-RNA assays: 10 mM Tris pH 7.5, 150 mM NaCl, 3.4 mM EDTA, 0.001% NP-40, 30 C. The settings on record: tags: His6 N-terminal (pET28a); label: 5' 32P. The essentials: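 Relative association constants, normalised to the cognate motif, were derived by comparing read counts of each RNA species with those of the control reaction. The RNA sequenced was the free fraction, separated by 8% native PAGE after a 10 min equilibration in 50 µL of 1 nM 5′-radiolabelled RNA (7 randomized nucleotides) with increasing concentrations of purified wild-type or mutant RbFox RRM.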
Take B1: the binding signal was 0.0306 KA relative to UGCAUGU. The result for B2 reads 0.000333 KA relative to UGCAUGU. In the case of B3 it was 0.035 KA relative to UGCAUGU; in that of B4, 0.0152 KA relative to UGCAUGU. In the case of B5 it was 0.00915 KA relative to UGCAUGU; in that of B6, 0.00115 KA relative to UGCAUGU. Consider B7, for which the binding signal is 0.0139 KA relative to UGCAUGU. The result for B8 reads 0.0377 KA relative to UGCAUGU. The result for B9 reads 0.0189 KA relative to UGCAUGU; that for B10, 0.0202 KA relative to UGCAUGU; that for B11, 0.00547 KA relative to UGCAUGU. In the case of B12 it was 0.00624 KA relative to UGCAUGU; in that of B13, 0.0163 KA relative to UGCAUGU; in that of B14, 0.0152 KA relative to UGCAUGU. In the case of B15, the binding signal is 0.000715 KA relative to UGCAUGU. The result for B16 reads 0.0081 KA relative to UGCAUGU. As for B17, the binding signal was 0.00937 KA relative to UGCAUGU.

B18: the binding signal is 0.00574 KA relative to UGCAUGU. The result for B19 reads 0.0134 KA relative to UGCAUGU. With B20, the binding signal was 0.00772 KA relative to UGCAUGU.
